# Assay results published in article PMC4336329 (PLoS ONE, 2015).
# In all, about 310,000 compounds went through this assay and about 14,000 (4.5%) showed an effect of 50% or more. Effects have a minus sign here. The list shows a part of the results.
# Target: human ether-à-go-go-related gene (hERG) potassium channel (human, UniProt Q12809)
# Assay: primary screen, population patch clamp on CHO cells stably expressing hERG
# 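Further: peak tail current of the secondary pulse compared with the same well before compound.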
# Sequence of human ether-à-go-go-related gene (hERG) potassium channel (Q12809 whole entry, looked up): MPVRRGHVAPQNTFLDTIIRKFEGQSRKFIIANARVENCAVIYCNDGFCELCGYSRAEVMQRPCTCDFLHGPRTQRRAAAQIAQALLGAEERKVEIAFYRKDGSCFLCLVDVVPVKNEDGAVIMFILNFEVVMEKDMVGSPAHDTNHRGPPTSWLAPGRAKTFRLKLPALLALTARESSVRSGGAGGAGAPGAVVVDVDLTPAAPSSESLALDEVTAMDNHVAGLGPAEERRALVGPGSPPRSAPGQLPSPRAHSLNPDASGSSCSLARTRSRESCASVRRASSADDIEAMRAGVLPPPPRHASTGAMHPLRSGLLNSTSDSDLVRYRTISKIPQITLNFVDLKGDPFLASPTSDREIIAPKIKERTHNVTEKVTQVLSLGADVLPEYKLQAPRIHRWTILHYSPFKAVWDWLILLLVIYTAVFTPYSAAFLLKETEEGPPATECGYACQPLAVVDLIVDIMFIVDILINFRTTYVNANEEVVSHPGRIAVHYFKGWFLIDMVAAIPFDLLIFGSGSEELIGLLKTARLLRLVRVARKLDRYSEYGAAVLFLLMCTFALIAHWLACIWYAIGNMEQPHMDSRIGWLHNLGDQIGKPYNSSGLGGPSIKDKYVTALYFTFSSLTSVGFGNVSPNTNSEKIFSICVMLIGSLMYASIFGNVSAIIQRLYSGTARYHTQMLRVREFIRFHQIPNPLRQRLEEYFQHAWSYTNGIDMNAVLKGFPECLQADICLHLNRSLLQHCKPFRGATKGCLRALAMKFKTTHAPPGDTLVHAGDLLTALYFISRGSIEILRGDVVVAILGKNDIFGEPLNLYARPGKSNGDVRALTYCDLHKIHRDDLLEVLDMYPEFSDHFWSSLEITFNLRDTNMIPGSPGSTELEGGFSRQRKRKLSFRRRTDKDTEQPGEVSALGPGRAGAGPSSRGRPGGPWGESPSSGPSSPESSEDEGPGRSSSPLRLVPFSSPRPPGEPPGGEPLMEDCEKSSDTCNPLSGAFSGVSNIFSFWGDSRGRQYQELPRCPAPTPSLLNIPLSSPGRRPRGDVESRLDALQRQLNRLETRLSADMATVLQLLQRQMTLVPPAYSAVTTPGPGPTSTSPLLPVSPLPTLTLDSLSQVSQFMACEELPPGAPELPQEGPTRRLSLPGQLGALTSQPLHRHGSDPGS
row,SMILES,"hERG current change (%, negative = inhibition) at 10uM [%]"
1,CC(=O)N1CCc2cc(S(=O)(=O)N3CCCCC3C)ccc21 (stereo not shown),-1.73
2,COCCC(=O)Nc1ccc2c(c1)CN(C(=O)CSC)CC2,7.01
3,O=C(C1CC(=O)N(c2ccccc2)C1)N1CCC(c2nc3ccccc3[nH]2)CC1 (stereo not shown),9.08
4,CCCCOC(=O)Nc1ccc(N2CCCCC2)cc1,-38.7
5,COc1cc(C(=O)NCc2ccncc2)cc(OC)c1OC,23.6
6,CCOc1ccc(Oc2ccc(S(=O)(=O)N3CCOCC3)cc2NC(=O)C2=COCCO2)cc1,-41.9
7,O=C(NCc1cccnc1)C1c2ccccc2C(=O)N1C1CCCC1 (stereo not shown),13
8,COC(=O)C(C)Oc1cc(OC(C)C(=O)OC)c2c(C)c(Cl)c(=O)oc2c1 (stereo not shown),-27.6
9,COc1ccc(NC(=O)COc2ccc(N(C)S(=O)(=O)c3ccc(Cl)cc3)cc2)cc1OC,-19.9
10,CC1CCCC(C)N1C(=O)Cn1c(SCC(=O)Nc2ccc3c(c2)OCO3)nc2ccccc21 (stereo not shown),-16.2
11,O=C(NCCCO)c1ccc(CSc2nc3ccccc3[nH]2)cc1,-8.65
12,Cc1ccc(N(CC(=O)NC2CCCC2)C(=O)CNC(=O)c2cccs2)c(C)c1,-1.45
13,CCOc1ccc(-n2c(=O)c3c4c(sc3n(CC(=O)NCc3ccco3)c2=O)CCC4)cc1,14.3
14,CN(C)c1nc(N/N=C/c2ccccc2O)nc(Nc2ccc(F)cc2)n1,10.7
15,O=C(CN(C(=O)c1ccccc1Cl)C1CCCCC1)Nc1ccc(Cl)c([N+](=O)[O-])c1,18.5
16,CC(C)N(Cc1nccn1C)C(=O)CCc1nnc(CCCc2ccccc2)o1,-21.3
17,CCCCc1c(C)nc2ccc(OC)cc2c1SCCC(=O)O,-3.33
18,COc1cccc(NC(=O)N(Cc2cc3cc(C)cc(C)c3[nH]c2=O)CC2COCCO2)c1 (stereo not shown),4.85
19,COC(=O)c1nn(-c2ccc(OC)cc2)c(=O)cc1Sc1ccc(C)cc1,7.3
20,c1ccc(Cn2cc(-c3ccccc3)cn2)cc1,-2.61
21,CS(=O)(=O)c1nc(S(=O)(=O)c2ccc(Cl)cc2)c(NCc2ccccn2)s1,-3.16
22,Cc1cc(C(=O)COC(=O)c2ccc(O)cc2O)c(C)n1C(C)C,0.326

row,SMILES,"hERG current change (%, negative = inhibition) at 10uM [%]"
1,CC(C)C1C(C#N)=C(N)Oc2n[nH]c(C(C)(C)C)c21 (stereo not shown),-18.1
2,CCN1CCN(CCCOc2ccccc2-c2ccccc2)CC1.O=C(O)C(=O)O,-66.6
3,COc1ccccc1NC(=S)NNC(=O)c1nn(C)c(C)c1Br,26.4
4,O=C(CCc1ccc(O)cc1)N/N=C/c1coc2ccccc2c1=O,1.81
5,CCS(=O)(=O)N1CCN(Cc2ccccc2OC)CC1.O=C(O)C(=O)O,11.7
6,CCCn1nc(C(=O)Nc2ccc3c(c2)OCO3)c2ccccc2c1=O,-12.4
7,CC(C)(C)NC(=O)/C=C/c1ccc(C(F)(F)F)cc1,3.92
8,CCN(CC)C(=O)CSc1nc(Cc2ccccc2)nc2ccccc12,22.5
9,CCOC(=O)C1=C(C)NC(=O)NC1c1ccc(OCCO)c(OC)c1 (stereo not shown),15.3
10,Cn1c(=O)c2c(nc(NCc3ccccc3)n2CC(=O)NCc2ccccc2)n(C)c1=O,0.0423
11,C[C@H]1CC[C@@]2(O[C@H](CCO)C[C@@H](O)[C@@H]2O)O1,6.89
12,O=C(O)c1ccc(N2C(=O)c3cccnc3C2=O)cc1,16.9
13,CCN(CC)S(=O)(=O)c1ccc(N2CCOCC2)c(C(=O)O)c1,-0.508
14,CC(C)(C)c1ccc(OCCC(=O)NCCc2ccc(S(N)(=O)=O)cc2)cc1,-16.1
15,COc1ccccc1Nc1nn2c(=O)c3ccc(C(=O)N4CCCC(C)C4)cc3nc2s1 (stereo not shown),-12.2
16,Cc1cc(C)c(NC2=NCC(=O)N2C2CCCCC2)c(C)c1,9.38
17,COc1ccc(/C=N\NC(=O)c2ccc(Cn3cc(Br)c([N+](=O)[O-])n3)o2)c(OC)c1C,14
18,CC(C(=O)NCCC1=CCCCC1)N1C(=O)c2ccccc2C1=O (stereo not shown),-11.2
19,CCOC(=O)/C(C#N)=C/c1c(Oc2cccc(C)c2)nc2c(C)cccn2c1=O,8.68
20,CCOC(=O)Cc1ccc(NC(=O)c2ccc([N+](=O)[O-])cc2)cc1,15
21,COCCn1c(=NC(=O)CSC(C)=O)sc2cc(OC)ccc21,-37.7
